Experimental data published in publication PMC6212432.
No constants are given. Whether binding was seen depends on the method and setting. In cells and extracts the contact can be indirect. Some results given as binding are weak or reduced against the parent protein; the word gives no strength. For part of these data: Sequences can lack the tags named with a protein.

The chains behind the UniProt entries cited, without tags or fusion partners.
UniProt P46937: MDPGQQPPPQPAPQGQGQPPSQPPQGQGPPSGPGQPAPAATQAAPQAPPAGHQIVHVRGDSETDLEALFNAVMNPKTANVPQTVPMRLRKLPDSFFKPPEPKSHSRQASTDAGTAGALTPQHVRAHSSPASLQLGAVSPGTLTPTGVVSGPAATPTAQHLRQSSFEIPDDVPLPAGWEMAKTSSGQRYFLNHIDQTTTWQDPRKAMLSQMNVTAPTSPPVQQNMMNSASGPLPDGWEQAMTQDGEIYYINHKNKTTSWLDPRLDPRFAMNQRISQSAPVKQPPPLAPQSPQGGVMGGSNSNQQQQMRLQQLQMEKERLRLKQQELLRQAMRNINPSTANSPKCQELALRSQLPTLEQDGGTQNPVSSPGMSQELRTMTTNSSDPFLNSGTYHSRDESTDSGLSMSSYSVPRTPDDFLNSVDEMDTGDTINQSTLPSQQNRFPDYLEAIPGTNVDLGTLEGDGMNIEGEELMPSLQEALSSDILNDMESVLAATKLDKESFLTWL
UniProt Q9Y297: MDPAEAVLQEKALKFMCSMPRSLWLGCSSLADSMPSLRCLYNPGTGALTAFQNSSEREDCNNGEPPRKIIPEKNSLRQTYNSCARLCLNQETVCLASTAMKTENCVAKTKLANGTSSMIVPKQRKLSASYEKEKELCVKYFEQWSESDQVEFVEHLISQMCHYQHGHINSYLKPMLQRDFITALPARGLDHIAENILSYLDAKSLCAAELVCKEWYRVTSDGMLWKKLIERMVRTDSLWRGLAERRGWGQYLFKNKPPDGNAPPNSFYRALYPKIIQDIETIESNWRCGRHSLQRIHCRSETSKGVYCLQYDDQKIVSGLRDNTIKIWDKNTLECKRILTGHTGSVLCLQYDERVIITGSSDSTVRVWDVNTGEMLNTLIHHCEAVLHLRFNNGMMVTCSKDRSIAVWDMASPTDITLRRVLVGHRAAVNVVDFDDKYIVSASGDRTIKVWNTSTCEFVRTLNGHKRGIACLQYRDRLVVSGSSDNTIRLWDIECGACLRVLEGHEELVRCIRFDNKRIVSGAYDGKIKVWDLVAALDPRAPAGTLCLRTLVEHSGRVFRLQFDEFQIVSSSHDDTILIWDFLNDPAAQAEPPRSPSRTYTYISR
UniProt Q9Y6K9: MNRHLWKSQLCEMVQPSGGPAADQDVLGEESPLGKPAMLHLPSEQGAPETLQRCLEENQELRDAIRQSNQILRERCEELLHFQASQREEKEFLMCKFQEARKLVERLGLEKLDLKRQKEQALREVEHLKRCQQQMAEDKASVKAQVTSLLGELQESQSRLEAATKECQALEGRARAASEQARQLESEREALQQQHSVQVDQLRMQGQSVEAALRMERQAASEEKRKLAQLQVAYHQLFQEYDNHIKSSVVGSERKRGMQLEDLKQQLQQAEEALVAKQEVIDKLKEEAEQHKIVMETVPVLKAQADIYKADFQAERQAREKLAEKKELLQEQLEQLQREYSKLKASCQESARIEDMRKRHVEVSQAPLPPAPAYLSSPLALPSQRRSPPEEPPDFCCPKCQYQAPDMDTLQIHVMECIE

What was measured:
YAP (in HEK293A cells) [1] = molecular target: YAP (in HEK293A cells) (UniProt P46937); assay: co-IP; YAP and β-TRCP in TAK1-KO HEK293A cells
YAP (in HEK293A cells) [2] = molecular target: YAP (in HEK293A cells) (UniProt P46937); assay: co-IP; YAP and β-TRCP in wild-type HEK293A cells
Flag-tagged TAK1 = molecular target: T1, Flag-tagged TAK1 (UniProt O43318); assay: co-IP; tagged proteins overexpressed in HEK293T for 24 h; lysate with anti-Flag M2 magnetic beads or anti-Myc agarose, 4 °C, 8 h; five washes; immunoblot
T1 sequence: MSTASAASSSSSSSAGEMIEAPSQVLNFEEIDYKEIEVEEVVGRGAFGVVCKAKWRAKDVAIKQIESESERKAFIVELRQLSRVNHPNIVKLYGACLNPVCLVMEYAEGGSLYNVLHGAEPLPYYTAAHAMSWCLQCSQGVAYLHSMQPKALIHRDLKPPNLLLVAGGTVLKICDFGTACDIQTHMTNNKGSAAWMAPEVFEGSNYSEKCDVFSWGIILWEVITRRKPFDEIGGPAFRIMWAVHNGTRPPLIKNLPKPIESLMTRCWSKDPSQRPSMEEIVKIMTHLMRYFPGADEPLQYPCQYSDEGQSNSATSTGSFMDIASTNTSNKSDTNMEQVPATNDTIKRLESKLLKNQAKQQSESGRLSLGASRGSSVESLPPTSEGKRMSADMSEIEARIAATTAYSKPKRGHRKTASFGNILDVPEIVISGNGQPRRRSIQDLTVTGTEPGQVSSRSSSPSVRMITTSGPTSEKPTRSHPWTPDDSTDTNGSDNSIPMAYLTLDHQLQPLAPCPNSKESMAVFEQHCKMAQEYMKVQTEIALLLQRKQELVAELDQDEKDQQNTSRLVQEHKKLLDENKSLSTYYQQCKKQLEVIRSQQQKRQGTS

[3] = molecular target: YAP (overexpressed, tag not stated for these co-IPs) (UniProt P46937); assay: as above
[4] = molecular target: YAP (overexpressed, tag not stated for these co-IPs) (UniProt P46937); assay: co-IP; YAP and β-TRCP in HEK293T cells with overexpression of TAK1 or kinase-dead TAK1 (TAK1-KD)
[5] = molecular target: YAP (endogenous) (human (endogenous in HEK293T)) (UniProt P46937); assay: co-IP; immunoprecipitation with anti-YAP antibody of endogenous proteins from HEK293T cells
Flag-tagged YAP = Flag-tagged YAP (UniProt P46937); assay: co-IP; tagged proteins overexpressed in HEK293T for 24 h; lysate with anti-Flag M2 magnetic beads or anti-Myc agarose, 4 °C, 8 h; five washes; immunoblot
[6] = molecular target: T2, IKKα (inhibitor of nuclear factor kappa-B kinase subunit alpha), O15111; assay: co-IP; IKKα and TAK1 in HEK293T cells with or without overexpression of YAP; details: remark: other sources report otherwise
T2 chain: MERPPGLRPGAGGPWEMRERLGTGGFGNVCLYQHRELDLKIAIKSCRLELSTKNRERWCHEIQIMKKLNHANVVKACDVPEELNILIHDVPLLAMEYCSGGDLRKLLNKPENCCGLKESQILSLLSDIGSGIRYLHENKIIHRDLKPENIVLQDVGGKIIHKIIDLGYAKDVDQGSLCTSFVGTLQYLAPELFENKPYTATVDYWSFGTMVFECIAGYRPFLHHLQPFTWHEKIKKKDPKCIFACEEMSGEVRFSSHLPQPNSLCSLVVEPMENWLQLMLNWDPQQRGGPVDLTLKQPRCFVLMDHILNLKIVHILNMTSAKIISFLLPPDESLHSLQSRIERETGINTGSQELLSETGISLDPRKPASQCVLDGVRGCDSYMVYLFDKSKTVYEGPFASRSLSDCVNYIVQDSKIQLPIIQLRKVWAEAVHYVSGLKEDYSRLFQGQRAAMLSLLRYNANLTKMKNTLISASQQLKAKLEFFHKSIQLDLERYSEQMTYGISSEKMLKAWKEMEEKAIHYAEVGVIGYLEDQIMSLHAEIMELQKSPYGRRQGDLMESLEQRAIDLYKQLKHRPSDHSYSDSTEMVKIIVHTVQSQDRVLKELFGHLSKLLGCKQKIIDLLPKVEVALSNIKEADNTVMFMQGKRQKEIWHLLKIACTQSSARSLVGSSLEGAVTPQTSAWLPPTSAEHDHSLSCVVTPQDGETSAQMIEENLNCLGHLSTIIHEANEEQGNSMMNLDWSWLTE

β-TRCP (in HEK293A cells) (from UniProt Q9Y297 1-605)
binding (YAP (in HEK293A cells) [1]): no binding (condition: in TAK1-KO HEK293A cells)
binding (YAP (in HEK293A cells) [2]): binds

YAP (overexpressed, tag not stated for these co-IPs) (from UniProt P46937 1-504)
binding (Flag-tagged TAK1): binds

IKKγ (from UniProt Q9Y6K9 1-419)
binding [3]: binds

β-TRCP (from UniProt Q9Y297 1-605)
binding [4]: binds

B1: TAK1 (endogenous) (enzyme, UniProt O43318 1-606)
chain: T1 sequence
binding [5]: binds

B2: TAK1 (overexpressed, tag not stated for these co-IPs) (enzyme, UniProt O43318 1-606)
chain: T1 sequence
binding (Flag-tagged YAP): binds

B3: IKKβ (inhibitor of nuclear factor kappa-B kinase subunit beta) (enzyme, UniProt O14920 1-756)
chain: MSWSPSLTTQTCGAWEMKERLGTGGFGNVIRWHNQETGEQIAIKQCRQELSPRNRERWCLEIQIMRRLTHPNVVAARDVPEGMQNLAPNDLPLLAMEYCQGGDLRKYLNQFENCCGLREGAILTLLSDIASALRYLHENRIIHRDLKPENIVLQQGEQRLIHKIIDLGYAKELDQGSLCTSFVGTLQYLAPELLEQQKYTVTVDYWSFGTLAFECITGFRPFLPNWQPVQWHSKVRQKSEVDIVVSEDLNGTVKFSSSLPYPNNLNSVLAERLEKWLQLMLMWHPRQRGTDPTYGPNGCFKALDDILNLKLVHILNMVTGTIHTYPVTEDESLQSLKARIQQDTGIPEEDQELLQEAGLALIPDKPATQCISDGKLNEGHTLDMDLVFLFDNSKITYETQISPRPQPESVSCILQEPKRNLAFFQLRKVWGQVWHSIQTLKEDCNRLQQGQRAAMMNLLRNNSCLSKMKNSMASMSQQLKAKLDFFKTSIQIDLEKYSEQTEFGITSDKLLLAWREMEQAVELCGRENEVKLLVERMMALQTDIVDLQRSPMGRKQGGTLDDLEEQARELYRRLREKPRDQRTEGDSQEMVRLLLQAIQSFEKKVRVIYTQLSKTVVCKQKALELLPKVEEVVSLMNEDEKTVVRLQEKRQKELWNLLKIACSKVRGPVSGSPDSMNASRLSQPGQLMSQPSTASNSLPEPAKKSEELVAEAHNLCTLLENAIQDTVREQDQSFTALDWSWLQTEEEEHSCLEQAS
binding [3]: binds

B4: TAK1 (overexpressed, tag not stated for these co-IPs), O43318 1-606 (enzyme)
chain: T1 sequence
binding [6]: binds
